From the supplement of paper PMC10338343
± gives the standard deviation. The list shows a part of the results, in another mix than the full data.

test system: MIWI (PIWIL1) piRISC loaded with piRNA #1 (30 nt); experiment: pre-steady-state target cleavage rate (min^-1); MIWI and MILI are mouse PIWI proteins and EfPiwi is from a freshwater sponge; tags in brackets are library labels; higher = faster piRNA-guided slicing of the target; conditions: guide: piRNA #1 5'p-UGAGGUAGUAGGUUGUAUAGUAUCCAGAGG; auxiliary factor: 500 nM mouse GTSF1
Outline: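 Cleave-'n-Seq: 1 nM active affinity-purified piRISC with one synthetic guide and 0.1 nM transcribed, DNA-blocked target RNA library were mixed, with or without 500 nM GTSF1 partner protein, in HEPES–potassium acetate buffer at 33 °C for 0–8 or 0–960 min. Uncleaved targets were sequenced and normalised to depth and to weakly complementary targets, three trials were pooled, and k3 was capped at 0.0001 min^-1. The pre-steady-state cleavage rate was fitted […].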

| Sequence | pre-steady-state target cleavage rate |
| --- | --- |
| GGAGACCUUACUAUACAACCUUCUACCUCA | 0.374 ± 0.022 |
| GCUGUGGAUACUAUACAACCUACUACCACA | 0.494 ± 0.051 |
| GGUCUGGAUACUAUACAACCUACUCCCUCA | 0.341 ± 0.043 |
| GGAGACCUAUCUAUACAACCAACUACCUGA | 0.00805 ± 0.0033 |
| GGAGACGAUAGUAUACAACCUACUACCUGA | 0.6 ± 0.091 |
| GGAGACCUAUGUAUACAACGUACUACCUCA | 0.0113 ± 0.0021 |
| GGAGACCUUGACUAUACAACCUACUACCUCA | 1.48 ± 0.14 |
| GGAGACCUAUGUAUAGAAGCUACUACCUCA | 0.00424 ± 0.0013 |
| GCUCUGGAUUCUAUACAACCUACUACGUCA | 0.706 ± 0.068 |
| GGAGACCUAUGAUAACAACCUACACCUCA | < 0.0001 |
| CCACUGGAUACUAUACAACGUACUACCUCA | 0.98 ± 0.044 |
| GGAGACCAUACAAUACAACCUACUACCUGA | 0.517 ± 0.074 |
| GGUCUGGAUACUAUACAACCGACUACCUCA | 0.00977 ± 0.0019 |
| GGAGACCUAUGUAUACAACCUACUACGUCA | 0.0939 ± 0.015 |
| GGAGACCUAUGUAUAGAACCUUCUACCUCA | 0.0033 ± 0.0012 |
| GGUCUGGAUAGUAUACAACCUACAACCUCA | 0.499 ± 0.046 |
| GGAGACCUAUCUUUACAACCUACUACCUCA | 0.247 ± 0.037 |
| GCUCUGGAUUGAAUACAACCUACUACCUCA | 0.491 ± 0.05 |
| GGAGACCUAUGUAUACAACCUACUACCGUCA | 0.083 ± 0.012 |
| GGAGUGGAUACUAUACAACCUACCUACCUCA | 1.08 ± 0.076 |
| GGAGACCUAACUAUACAACCUACUACGUCA | 0.655 ± 0.062 |
| GGUCAGGAUACUAUACAACGUACUACCUCA | 0.729 ± 0.043 |
| GGAGACCUAAGUAAACAACCUACUACCUCA | 0.00387 ± 0.0035 |
| GGAGACCUAACUAUACAACCAACUACGUCA | 0.0099 ± 0.0034 |
